# Experimental data published in paper PMC9574860, “Chemical Toolkit for PARK7: Potent, Selective, and High-Throughput” (Journal of Medicinal Chemistry, 2022).
# Among all 7,900 compounds or so, about 400 (5.1%) showed an effect of 50% or more. Some of the results follow.
# Biological target: Parkinson's disease protein 7 (PARK7/DJ1) (human, UniProt Q99497)
# Assay: primary screen, percent inhibition; read as competition with a fluorescent probe by fluorescence polarization; higher = more effect of the substance
# Conditions: 100 µM
# Outline: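 Fluorescence-polarization probe displacement (JYQ-107, 20 nM final, 2 h) after 2 h preincubation of PARK7 (0.2 μM final) with each fragment at 100 μM final. Read-out ex/em 480/520 nm; remaining activity derived from FP signal loss relative to reference controls.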
# Chain of Parkinson's disease protein 7 (PARK7/DJ1) (Q99497 whole entry, looked up): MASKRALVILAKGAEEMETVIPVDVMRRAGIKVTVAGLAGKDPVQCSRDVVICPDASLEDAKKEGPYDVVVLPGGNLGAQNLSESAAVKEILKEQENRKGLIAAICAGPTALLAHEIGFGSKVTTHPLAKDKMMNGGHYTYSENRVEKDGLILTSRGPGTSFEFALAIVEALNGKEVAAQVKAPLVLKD
row,Compound,Inhibition % [%]
1,Cc1nc(S(=O)(=O)F)[nH]c1C.Cl,6.55
2,Cn1cc(C=C2N=C(c3cccc(Cl)c3)OC2=O)cn1,2.2
3,Cc1cccc(OCCNC(=O)CCl)c1,12.5
4,Cc1ccc(-c2noc(CN3C(=O)CCC3=O)n2)cc1,0.305
5,Cc1cccc(C2CO2)c1 (stereo not shown),7.63
6,CC1(C)OB(CC2CC3(CCOCC3)C2)OC1(C)C,3.09
7,C#CCNS(=O)(=O)C=Cc1ccc(Cl)cc1,4.44
8,C=CC(=O)N[C@H]1C[C@H](c2ccccc2C)C1,9.78
9,Cc1ccc(S(=O)(=O)n2nc(O)cc2N)cc1,12.4
10,O=C(CCl)c1ccc2c(c1)COC2,72.7
11,N#Cc1cc(N2CCCC(F)C2)ccn1 (stereo not shown),8.69
12,O=C(Sc1cccc2cccnc12)N1CCOCC1,10.7
13,O=C1NC2CCCCCC12 (stereo not shown),9.84
14,Cn1cc(C=C(C#N)c2ccc(C(F)(F)F)cn2)cn1,-13.2
15,O=C(Nc1ccccc1)C1CCN(C(=O)CCl)CC1,12.6
16,CC1CC(Nc2ccc(Cl)c(C(N)=O)c2)C(=O)O1 (stereo not shown),5.86
17,CC1(O)CCCN(C(=O)CCN2C(=O)CCC2=O)C1 (stereo not shown),3.32
18,CCOC(=O)c1cc(B2OC(C)(C)C(C)(C)O2)[nH]n1,2.66
19,O=C(CN1CCSC1=O)Nc1cnc2ccccc2c1,3.33
20,C=CC(=O)NC1COc2c(Cl)cccc21 (stereo not shown),10.4
21,OC(CCC1CO1)c1ccccc1 (stereo not shown),8.56
22,CN(C)C=CC(=O)c1cccnc1,7.32
23,CC(C)NC(=O)C(C#N)=Cc1cncn1C(C)C,0.108
24,C=CC(=O)N1CCC(C(=O)NCC(F)(F)F)C1 (stereo not shown),4.08
25,CC1(C)OB(c2cc(F)c3c(c2)CC(=O)N3)OC1(C)C,9.79

row,Compound,Inhibition % [%]
1,Cc1cc(C)n(C(C)CC(=O)Nc2cccc(B(O)O)c2)n1 (stereo not shown),-1.61
2,C=CC(=O)N1CCOCC1COC (stereo not shown),7.61
3,Cn1cnc(NS(=O)(=O)c2ccc(S(=O)(=O)F)cc2)n1,5.05
4,C=CC(=O)N[C@@H]1CCCOC1,4.38
5,COc1cccc(N2CCN(CCS)CC2)c1.Cl.Cl,23.6
6,C=CCNC(=O)C(C#N)=CC=Cc1ccccc1,4.25
7,CC(C)(C)OC(=O)n1c(B2OC(C)(C)C(C)(C)O2)cc2ccccc21,5.05
8,Cc1ccc2cc(B(O)O)ccc2n1,2.94
9,CCN(CC)C(=O)Oc1ccc(N2CCCC2)cc1,-3.98
10,O=C(Cc1ccc2c(c1)CCO2)Nc1cccc(S(=O)(=O)F)c1,94.3
11,O=C1OC(c2ccc(F)c(F)c2)=NC1=Cc1csnn1,4.11
12,CC1CC(Nc2ccc3c(c2)CCCC(=O)N3)C(=O)O1 (stereo not shown),10.7
13,N#Cc1ccc(NC2CCc3ccccc32)cn1 (stereo not shown),18.8
14,O=C(c1cccnc1S)N1CCOC2(CCOCC2)C1,-0.763
15,CN(C)c1ccc(NS(=O)(=O)C=Cc2ccccc2)cn1,69.9
16,CCCn1nc2c(cc1=O)CN(C1CC(C)OC1=O)CC2 (stereo not shown),86.8
17,C=CC(=O)NC(=O)NC1CCC1,5.59
18,Cl.ClCCN1CCCC1,-2.21
19,CC1(C)OB(c2cccnc2)OC1(C)C,3.19
20,CN(C)S(=O)(=O)c1ccc2c(c1)CCCN2C(=O)CCl,8.14
21,NS(=O)(=O)c1ccc(S)nc1,22.6
22,CSc1ccnc(C#N)c1,16.2
23,C=CC(=O)N1Cc2ccccc2OC(C)(C)C1,13.6
24,CC1CC(Sc2nncn2-c2ccccc2F)C(=O)O1 (stereo not shown),0.0122
25,CC(C)(C)SCCOc1cccnc1C#N,9.17

row,Compound,Inhibition % [%]
1,C=CC(=O)NCc1oc(C(C)C)nc1C,13.4
2,COc1ccc(CNS(=O)(=O)C=Cc2ccccc2)cc1,-1.67
3,CN1CCCC(CCl)C1.Cl (stereo not shown),4.37
4,C=CC(=O)NCc1cnc(N2CCOCC2)c(F)c1,13.6
5,O=C(Nc1ccccc1)C1CCN(C2CCOC2=O)CC1 (stereo not shown),6.25
6,N#CSc1ccc2c(c1)CCCN2,27.6
7,C=CC(=O)N1CC(=O)NC2CCCCC21 (stereo not shown),24.2
8,N#Cc1cc(N2CCC(CF)CC2)ccn1,6.88
9,O=C(CCl)NCC1CCS(=O)(=O)C1 (stereo not shown),6.97
10,N#Cc1cc2ccccc2[nH]1,-0.598
11,CC(O)Cn1c(S)nc2cc(Cl)ccc2c1=O (stereo not shown),2.03
12,C=CC(=O)N1CCC(C2CCCO2)C1 (stereo not shown),2.87
13,O=C(OCc1ccccc1)N1C[C@@H]2O[C@@H]2C1,15.2
14,CC1(C)C(=O)NC1C1CCN(CC(C)(O)C(F)(F)F)CC1 (stereo not shown),6.49
15,C=CC(=O)NCc1ccc2c(=O)cc[nH]c2c1,18.3
16,CC1(C)NC1c1ccccc1 (stereo not shown),6.12
17,N#Cc1cccc(NC(=O)CCCl)c1,9.44
18,Cc1ccccc1C(C)NC(=O)Cn1cnc(C#N)n1 (stereo not shown),3.4
19,CCc1sc(C(=O)NNC(=O)CCl)cc1C,13
20,Cc1csc(C2CN(C3CCOC3=O)CCO2)n1 (stereo not shown),12.4
21,Nc1cccc(NC(=O)Oc2ccccc2)c1,39.4
22,N#Cc1cc(N2CCCC2)c2ccccc2n1,3.59
23,N#Cc1ncn(CC(=O)N2CCCc3ccccc32)n1,4.05
24,N#Cc1ncn(CCC23CC4CC(CC(C4)C2)C3)n1,10.6
25,CCOc1ccc(S(=O)(=O)n2ccc(C)n2)cc1,6.55

row,Compound,Inhibition % [%]
1,CC1(C)OB(c2ccc(N)c(CO)c2)OC1(C)C,7.71
2,Cc1ccn(CCC2CCOC2=O)c(=O)c1C#N (stereo not shown),2.39
3,OB(O)c1cccc2c1CCCC2,9.29
4,O=S(=O)([O-])C=Cc1ccccc1.[Na+],7.5
5,COCCN(C(=O)CCl)C1CCS(=O)(=O)C1 (stereo not shown),9.33
6,O=C(CCl)Nc1cc(C(=O)O)cc(C(=O)O)c1,1.39
7,Cc1nn(C(C)C)cc1B1OC(C)(C)C(C)(C)O1,3.79
8,C=CC(=O)NC1CCCC1C(=O)NC (stereo not shown),9
9,C=CC(=O)N1CCCC(c2nc(N(C)C)no2)C1 (stereo not shown),10
10,Cl.NCC12CC3CC(CC(Cl)(C3)C1)C2,6.62
11,CCNC(=CC#N)c1ccc(Cl)cc1,13.1
12,O=C1NCCc2ccc(S(=O)(=O)OCC(F)(F)F)cc21,14.7
13,O=C(CCl)Nc1ccc(-c2nnc3n2CCCCC3)cc1,25.1
14,C=CC(=O)N1CSCC1C(=O)N(C)CC (stereo not shown),8.71
15,C=CC(=O)N1CCCCC1c1nc2ccccc2o1 (stereo not shown),7.43
16,Cc1ccc(S(=O)(=O)C(C#N)=Cc2cccnc2)cc1,1.9
17,Cc1cc(F)ccc1OS(=O)(=O)c1cnn(C)c1,9.05
18,CC1(C)OB(C2=CCCCOC2)OC1(C)C,29.2
19,CC(C)(C)c1ccc(NC(=O)CCl)cc1,100
20,C=CC(=O)NCC1CCSCC1,2.54
21,N#CC(=Cc1ccsc1)C(=O)NCc1ccco1,12.4
22,CNC(=O)C(NC(=O)CCl)c1ccccc1 (stereo not shown),8.83
23,N#Cc1ccc(N2CCC(CF)CC2)cn1,5.8
24,CC1(C)OB(CC2CC3(CCNCC3)C2)OC1(C)C.Cl,0.486
25,C=C(C(=O)O)c1ccc(Cl)cc1,2.47

row,Compound,Inhibition % [%]
1,CC1(C)C(=O)NC1c1cccnc1 (stereo not shown),4.25
2,C=CC(=O)NCC1CCN1C(C)(C)C (stereo not shown),23.2
3,Cc1ccc(-c2nc(C#N)c(N(C)C)o2)cc1,5.8
4,C=CC(=O)NC1CCN(c2ccc(C(F)(F)F)cc2)C1 (stereo not shown),4.59
5,Cn1nccc1C=CC(=O)N1CCCC(C(F)(F)F)C1 (stereo not shown),4.49
6,Cl.ClCCCN1CCN(c2ccccc2)CC1,3.99
7,CC1(C)C(=O)NC1C1CCNCC1 (stereo not shown),0.305
8,CCn1cnnc1SC1CC(C)OC1=O (stereo not shown),2.55
9,CCOCCSc1nccnc1C#N,7.01
10,C=CC(=O)N1CCn2c(nc(C)c2C)C1,4.47
11,N#Cc1ncn(CC(=O)Nc2ccc(F)c(F)c2)n1,2.19
12,Cc1nc(C#N)c(NCc2ccccc2Cl)o1,4.52
13,C=CC(=O)N1CCN(CC(O)c2ccco2)CC1 (stereo not shown),14.4
14,C=CC(=O)NC[C@@H]1CN(C)C(=O)O1,11.4
15,C=CC(=O)N1CCN(C2CC3CCC2C3)CC1 (stereo not shown),7.14
16,CC1(C)OB(c2ccc(C3CCC(=O)N3)cc2)OC1(C)C (stereo not shown),6.79
17,N#CC(=Cc1cc2cc(F)ccc2o1)C(N)=O,6.05
18,CC1CCN(C(=O)C=Cc2cnn(C)c2)C2CCCCC12 (stereo not shown),-3.16
19,Cl.N[C@@H]1CC[C@H](CS(=O)(=O)F)C1 (racemic),22.9
20,CCCC(C#N)NS(=O)(=O)c1ccc(S(=O)(=O)F)cc1 (stereo not shown),33.3
21,C=CC(=O)N1CCN(C(=O)C2CCCO2)CC1 (stereo not shown),7.33
22,C=CC(=O)N1CCCC2(CCSCC2)C1,13.5
23,Cc1ccc(C(=O)N2CCCC(C3OCCO3)C2)c(O)c1 (stereo not shown),-1.1
24,COCc1cccc(Nc2ccnc(C#N)c2)c1,5.84
